Source: PubChem BioAssay AID485294 (National Center for Advancing Translational Sciences (NCATS), 2010)
Hit rate of the full screen: of about 370,000 compounds, about 150 (0.041%) were called active. This list was built around the results that the source calls inconclusive (neither active nor inactive); the mix of calls is not that of the screen. Calls follow the shape of the dose curve; as a rule, active = well fitted inhibition curve with a large enough effect; inconclusive = small, poorly fitted or top-dose-only effect; inactive = flat fitted curve, though single readings scatter. No potency is given beside an inconclusive call; the fits are too rough.

molecular target: Beta-lactamase (Escherichia coli (strain K12)) (UniProt P00811); assay: qHTS Inhibitors of AmpC Beta-Lactamase (assay with detergent); conditions: AmpC hydrolysis of nitrocefin, absorbance 480 nm, 0.01% Triton; activity change, negative = inhibition: at 114 µM (top of the series); also: nearly all actives have a fitted effect of over 25% in size;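 as to activity change, negative = inhibition: 0% = no-compound wells and -100% = no-enzyme wells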
In short: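 20 mM phosphate pH 7.0 + 0.01% (detergent screen) or 0.0001% Triton X-100; 5.3 nM AmpC reagent; cpd preinc 15 min RT; nitrocefin (800 uM stock) to start; A480 q20 s × 4 min; Activity was normalised to no-enzyme and no-compound control wells.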
Potency is read from the fitted curve at half-maximal effect; tags tell the direction and shape of the fitted curve.

Chain of UniProt P00811 (P00811 whole entry, looked up): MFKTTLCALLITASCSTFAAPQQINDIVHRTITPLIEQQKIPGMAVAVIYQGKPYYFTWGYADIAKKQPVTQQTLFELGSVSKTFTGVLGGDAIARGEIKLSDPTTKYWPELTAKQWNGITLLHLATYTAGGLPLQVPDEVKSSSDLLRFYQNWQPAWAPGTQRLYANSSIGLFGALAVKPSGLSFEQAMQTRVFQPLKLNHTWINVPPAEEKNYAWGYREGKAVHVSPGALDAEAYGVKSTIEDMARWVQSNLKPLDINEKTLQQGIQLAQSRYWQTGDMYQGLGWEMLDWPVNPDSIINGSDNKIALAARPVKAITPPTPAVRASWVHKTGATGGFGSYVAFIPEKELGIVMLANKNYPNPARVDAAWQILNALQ

Row | Compound | Potency | activity change, negative = inhibition
1 | O=C(OCC(=O)N1CCCC1)c1cc(Cl)ccc1[N+](=O)[O-] | inconclusive [inhibitor, full curve] | –
2 | CC1CC(=O)N(c2ccc(N(C)Cc3ccccc3)c([N+](=O)[O-])c2)C1=O (stereo not drawn) | – | inactive: 2.34%
3 | Cc1cccc(COc2ccc(-c3cc(C(F)(F)F)n4nc(C)cc4n3)cc2)c1 | – | inactive: -3.03%
4 | CCCCc1nc2n[nH]c(N)c2c2c1CCC2 | inconclusive [inhibitor, full curve, poor fit] | –
5 | CCOC(=O)c1ccccc1NC(=O)Cc1sc(-c2cccnc2)nc1-c1ccc(C)cc1 | inconclusive [inhibitor, partial curve] | –
6 | CC(=O)N1c2ccc(S(=O)(=O)N3CCCC3C(=O)Nc3cccc(F)c3)cc2CC1C (stereo not drawn) | inconclusive [inhibitor, full curve] | –
7 | CCOc1ccc(S(=O)(=O)N2CCC(C(=O)NCc3ccco3)CC2)cc1 | – | inactive: -0.55%
8 | NNCCc1ccccc1 | – | inactive: -6.59%
9 | CCc1ccccc1NC(=O)CN(c1ccc(OC)cc1OC)S(=O)(=O)c1ccccc1 | – | inactive: -13%
10 | CN(CCOc1ccc(Cl)cc1)C(=O)CN1C(=O)NC2(CCCC2)C1=O | inconclusive [inhibitor, full curve, poor fit] | –
11 | O=C(NCCN1CCOCC1)N1CCOCC1 | inconclusive [inhibitor, full curve, poor fit] | –
12 | O=Cc1cc(CCC(=O)O)ccc1O | inconclusive [inhibitor, full curve, poor fit] | –
13 | Cc1ccc(NC(=O)CSc2nnc(CCC(=O)O)c(=O)[nH]2)cc1 | – | inactive: 4.13%
14 | Cc1ccc(S(=O)(=O)c2nnn(-c3cccc(F)c3)c2N)cc1 | – | inactive: 2.2%
15 | CCCCCCn1c(O)c(C=NCCCn2ccnc2)c(=O)[nH]c1=O | inconclusive [inhibitor, full curve, poor fit] | –
16 | Cc1cc[n+](Cc2ccc([N+](=O)[O-])cc2)cc1 | – | inactive: 1.86%
17 | OCCCCNCc1ccc(OCc2ccc(Cl)cc2Cl)cc1 | – | inactive: -0.103%
18 | COc1ccccc1C(=O)OCC(=O)Nc1cccc(S(=O)(=O)N2CCCC2)c1 | inconclusive [inhibitor, full curve] | –
19 | CCOc1cc(C(=O)Nc2c(C)ccc3nsnc23)cc(OCC)c1OCC | inconclusive [inhibitor, full curve, poor fit] | –
20 | Clc1ccc(-c2noc(CSc3nnc(-c4ccncc4)n3-c3ccccc3)n2)cc1 | – | inactive: -12.4%
21 | Cc1c(Cl)cccc1NC(=O)c1cc(C2CC2)on1 | inconclusive [inhibitor, full curve, poor fit] | –
22 | COc1cc(NS(=O)(=O)c2ccc3c(c2)OCC(C(=O)N2CCCC2)O3)cc(OC)c1 (stereo not drawn) | – | inactive: -1.24%
23 | COCCn1c(SCc2ccc(C(=O)OC)o2)nnc1-c1c[nH]c2ccccc12 | inconclusive [inhibitor, full curve] | –
24 | CCOC(=O)N1CCC2(CC1)CC(=O)c1cc(O)ccc1O2 | inconclusive [inhibitor, full curve, poor fit] | –
25 | COc1ccc(N2CCN(C(=O)c3ccccc3NC(=O)C3=C(C)OCCS3)CC2)cc1 | inconclusive [inhibitor, full curve, poor fit] | –

Row | Compound | Potency | activity change, negative = inhibition
26 | COc1cc(/C=N/Nc2nc(C)cc(C)n2)ccc1OC(=O)c1ccco1 | – | inactive: -9.82%
27 | COc1cc2nc(C3CCC3)nc(N3CCN(c4ccccc4OC)CC3)c2cc1OC | inconclusive [inhibitor, full curve, poor fit] | –
28 | COc1ccccc1CSc1nc2n(n1)C(c1ccccc1)C(C(=O)Nc1ccc(C)cc1)=C(C)N2 (stereo not drawn) | – | inactive: -5.02%
29 | COc1ccccc1C(=O)n1nc(C)cc1C | inconclusive [inhibitor, partial curve, poor fit] | –
30 | O=C(Cn1c2c(sc1=O)C1c3ccccc3OCC1CS2)Nc1ccc(Cl)cc1 (stereo not drawn) | inconclusive [inhibitor, partial curve, poor fit] | –
31 | Cc1ccc(OCc2cn3cccnc3n2)cc1 | – | inactive: 9.49%
32 | Cc1ccc(/C=C/C(=O)Nc2cc(=O)n(C)c(=O)n2C)o1 | – | inactive: 3.84%
33 | CC(=O)N1CCc2cc(C(=O)CN3CCC(C)CC3)ccc21 | – | inactive: -6.53%
34 | Cc1cc(C)c(NC(=O)CSCc2c(C)noc2C)c(Cl)c1 | inconclusive [inhibitor, full curve] | –
35 | CCOc1ccccc1C(=O)Nc1cccc(-c2nnc(-c3ccccc3)o2)c1 | inconclusive [inhibitor, partial curve] | –
36 | COc1ccc(NC(=O)Cn2c(SCc3c(F)cccc3Cl)nc3ccncc32)cc1OC | – | inactive: 22.9%
37 | Cn1c(CN2CCCCC2)nc2cc([N+](=O)[O-])ccc21 | – | inactive: -0.453%
38 | COc1cccc(-c2nnc(-c3ccccc3[N+](=O)[O-])o2)c1 | – | inactive: 2.99%
39 | O=C(NCCN1CCN(Cc2ccccc2)CC1)C1c2ccccc2C(=O)N2CCc3ccccc3C12 (stereo not drawn) | inconclusive [inhibitor, full curve, poor fit] | –
40 | CCCC(=O)Nc1nnc(-c2ccc3c(c2)OCCO3)o1 | inconclusive [inhibitor, partial curve] | –
41 | Cc1cccc(-c2nc(CS(=O)CC(=O)NCc3ccco3)c(C)o2)c1 (stereo not drawn) | inconclusive [inhibitor, full curve, poor fit] | –
42 | Cc1cc(N2C(=O)C3C4c5ccccc5C(c5ccccc54)C3C2=O)no1 (stereo not drawn) | inconclusive [inhibitor, full curve, poor fit] | –
43 | Cc1ccc(-c2nnc3c(C(F)(F)F)nc4ccccc4n23)cc1 | inconclusive [inhibitor, full curve, poor fit] | –
44 | CC(=O)Oc1ccc2c(C)c(CC(C)O)c(=O)oc2c1 (stereo not drawn) | inconclusive [inhibitor, full curve, poor fit] | –
45 | O=C1c2ccccc2C(Nc2ccc(S(=O)(=O)N3CCOCC3)cc2)N1Cc1ccco1 (stereo not drawn) | inconclusive [inhibitor, full curve, poor fit] | –
46 | Fc1ccc(NC2=NCCCCC2)cc1 | inconclusive [inhibitor, partial curve] | –
47 | O=c1oc2ccccc2c(O)c1Cc1cc(Cl)c2cccnc2c1O | – | inactive: 1.46%
48 | CN(C)c1ccc(NC(=S)c2ccccn2)cc1 | – | inactive: -10.3%
49 | CCOC(=O)CC(NC(=O)c1cc2cc(Cl)cc(Cl)c2oc1=O)c1cccc([N+](=O)[O-])c1 (stereo not drawn) | inconclusive [inhibitor, partial curve, poor fit] | –
50 | CCOC(=O)c1ccc2[nH]c3c(c2c1)CN(C)CC3 | inconclusive [inhibitor, full curve] | –

Row | Compound | Potency | activity change, negative = inhibition
51 | O=C(Nc1ncc(Cc2cccc(Cl)c2)s1)c1ccc([N+](=O)[O-])cc1 | – | inactive: -11.5%
52 | O=C1c2ccccc2C(=O)N1CCn1c(=O)oc2ccccc21 | – | inactive: 4.02%
53 | CCC(C(=O)Nc1ccc([N+](=O)[O-])cn1)c1ccccc1 (stereo not drawn) | inconclusive [inhibitor, full curve, poor fit] | –
54 | CC(=O)Nc1cccc(C(=O)OC(C(=O)c2ccc(C)c(C)c2)c2ccccc2)c1 (stereo not drawn) | inconclusive [inhibitor, full curve, poor fit] | –
55 | CCCCN(CCCC)C(=O)c1cc2ccccc2c(=O)o1 | inconclusive [inhibitor, partial curve] | –
56 | COCC(=O)Nc1ccc([N+](=O)[O-])cc1C | – | inactive: -5.63%
57 | COc1ccc(-c2nnc(SCC(=O)c3ccc(O)cc3O)o2)cc1 | – | inactive: -14.6%
58 | CN(C)c1cccc(C(=O)NCCCSc2ccccc2)c1 | – | inactive: -0.804%
59 | Nc1c(Cl)cc(-c2[nH]c3cc(C(=O)NCCO)ccc3c(=O)c2O)cc1Cl | inconclusive [inhibitor, partial curve, poor fit] | –
60 | COc1ccc(C(=O)CSc2nc3[nH]ncc3c(=O)[nH]2)cc1 | – | inactive: -2.48%
61 | CC(C)(Oc1ccc(Cl)cc1)C(=O)OCc1nc2ccsc2c(=O)[nH]1 | inconclusive [inhibitor, full curve, poor fit] | –
62 | Cc1sc2nc(SCC(=O)OC(C)C)n(C)c(=O)c2c1C | inconclusive [inhibitor, full curve, poor fit] | –
63 | Cc1ccccc1OCC(=O)N/N=C/c1ccncc1 | inconclusive [inhibitor, full curve] | –
64 | CN(C)c1ccc(/C=N/n2cnn(Cc3ccccc3Cl)c2=S)cc1 | inconclusive [inhibitor, full curve, poor fit] | –
65 | COc1ccc(NC(=S)NC(=O)/C=C/c2ccco2)c(OC)c1 | inconclusive [inhibitor, full curve, poor fit] | –
66 | CCC(=O)N1N=C(c2cccs2)CC1c1ccc(OC)cc1 (stereo not drawn) | inconclusive [inhibitor, full curve, poor fit] | –
67 | CSc1nc(N)nc(SCC(=O)C(C)(C)C)c1C#N | inconclusive [inhibitor, single point] | –
68 | Cc1ccc(C)c(NC(=O)C2CCCN2S(=O)(=O)c2ccc3c(c2)CCCC(=O)N3)c1 (stereo not drawn) | – | inactive: 0.24%
69 | COc1ccc(C2=NN(C)C(=NCc3ccccc3)SC2)cc1 | – | inactive: -10.9%
70 | Cn1ncc(Br)c1C(=O)NC1CCCCCC1 | inconclusive [inhibitor, full curve, poor fit] | –
71 | O=c1cc(O)c2c(=O)n(-c3ccccc3)c3c(c2o1)CCCCC3 | inconclusive [inhibitor, full curve, poor fit] | –
72 | COC(=O)c1cc(CNC(=O)C(C)NS(=O)(=O)c2ccc(C)c(C)c2)ccc1OC (stereo not drawn) | – | inactive: 1.21%
73 | CCNc1ccc(S(=O)(=O)N(C)C)cc1NCC(=O)Nc1c(F)cccc1F | inconclusive [inhibitor, full curve] | –
